In article PMC12820563, “FoxP3 forms a head-to-head dimer in vivo and stabilizes its multimerization on adjacent microsatellites” one finds binding signal data, which are given here for 32 sequences.

The list shows a part of the results.

The assay concerns the target T1, MBP-FoxP1dN (Mus musculus, UniProt P58462 326-579).
T1 sequence: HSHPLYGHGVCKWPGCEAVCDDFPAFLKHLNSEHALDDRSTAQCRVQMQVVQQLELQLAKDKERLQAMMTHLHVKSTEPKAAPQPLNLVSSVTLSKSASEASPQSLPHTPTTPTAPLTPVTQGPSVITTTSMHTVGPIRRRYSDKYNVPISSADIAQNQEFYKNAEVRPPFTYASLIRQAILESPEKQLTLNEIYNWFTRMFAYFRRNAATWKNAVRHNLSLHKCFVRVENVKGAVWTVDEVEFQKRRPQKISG
In words: PD-seq (MBP pull-down with sequencing); 20 mM Tris-HCl pH 7.5, 100 mM NaCl, 1.5 mM MgCl2, 0.4 uM protein, 0.1 uM dsDNA library, 30 min, room temperature, amylose pull-down; high values mean tight binding. The conditions noted are these: protein: recombinant; tags: His6-MBP; chain copies: 2; dsDNA, one strand shown. In outline: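 Binding is the reads-per-million enrichment of pull-down relative to input, pooled across replicates. For this, 0.4 µM His6-MBP-tagged mouse FoxP3 or FoxP1 fragment lacking the N-terminus, made in E. coli, was incubated with 0.1 µM Klenow-filled double-stranded degenerate DNA library for 30 min at room temperature in Tris pH 7.5 buffer with NaCl and MgCl2. Complexes bound to amylose resin were washed three times before proteinase K released the DNA for PCR barcoding and Illumina sequencing.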
For the sequence “GATGATTGTTCTCCCAGCTGATGAATTAGAACACTCGAGTAAACAAATTTTCCTAATCTTTCTGTTCAAGCGCCATCTAC”, the binding signal was 0.949 RPM ratio (pull-down/input).

Regarding “GATGATTGTTCTCCCAGCTGATGAATTGTGCGGTTCGAGTAAACAAATTTTCCTAATCTTTCTGTTCAAGCGCCATCTAC”, the binding signal is 1.04 RPM ratio (pull-down/input).

For “GATGATTGTTCTCCCAGCTGATGAATTCCTTGTATCGAGTAAACAAATTTTCCTAATCTTTCTGTTCAAGCGCCATCTAC”, the binding signal was 0.973 RPM ratio (pull-down/input).

As for “GATGATTGTTCTCCCAGCTGATGAATTTCCTATGTCGAGTAAACAAATTTTCCTAATCTTTCTGTTCAAGCGCCATCTAC”, the binding signal was 0.811 RPM ratio (pull-down/input).

“GATGATTGTTCTCCCAGCTGATGAATTATATTGATCGAGTAAACAAATTTTCCTAATCTTTCTGTTCAAGCGCCATCTAC”: the binding signal is 2.09 RPM ratio (pull-down/input).

Turning to “GATGATTGTTCTCCCAGCTGATGAATTGGCGTAGTCGAGTAAACAAATTTTCCTAATCTTTCTGTTCAAGCGCCATCTAC”, the binding signal is 0.837 RPM ratio (pull-down/input).

Turning to “GATGATTGTTCTCCCAGCTGATGAATTGACCGTTTCGAGTAAACAAATTTTCCTAATCTTTCTGTTCAAGCGCCATCTAC”, the binding signal is 0.977 RPM ratio (pull-down/input).

“GATGATTGTTCTCCCAGCTGATGAATTTAGTTTCTCGAGTAAACAAATTTTCCTAATCTTTCTGTTCAAGCGCCATCTAC”: the binding signal was 0.929 RPM ratio (pull-down/input).

“GATGATTGTTCTCCCAGCTGATGAATTGTCCGTCTCGAGTAAACAAATTTTCCTAATCTTTCTGTTCAAGCGCCATCTAC”: the binding signal was 0.872 RPM ratio (pull-down/input).

Turning to “GATGATTGTTCTCCCAGCTGATGAATTAGAGCTCTCGAGTAAACAAATTTTCCTAATCTTTCTGTTCAAGCGCCATCTAC”, the binding signal was 0.834 RPM ratio (pull-down/input).

On to “GATGATTGTTCTCCCAGCTGATGAATTACTTATGTCGAGTAAACAAATTTTCCTAATCTTTCTGTTCAAGCGCCATCTAC”, for which the binding signal is 1.31 RPM ratio (pull-down/input).

“GATGATTGTTCTCCCAGCTGATGAATTCCACCACTCGAGTAAACAAATTTTCCTAATCTTTCTGTTCAAGCGCCATCTAC”: the binding signal was 0.844 RPM ratio (pull-down/input).

On to “GATGATTGTTCTCCCAGCTGATGAATTAAAACGCTCGAGTAAACAAATTTTCCTAATCTTTCTGTTCAAGCGCCATCTAC”, for which the binding signal was 0.985 RPM ratio (pull-down/input).

Take “GATGATTGTTCTCCCAGCTGATGAATTTATTACATCGAGTAAACAAATTTTCCTAATCTTTCTGTTCAAGCGCCATCTAC”: the binding signal is 1.21 RPM ratio (pull-down/input).

As for “GATGATTGTTCTCCCAGCTGATGAATTTTACTCGTCGAGTAAACAAATTTTCCTAATCTTTCTGTTCAAGCGCCATCTAC”, the binding signal was 0.785 RPM ratio (pull-down/input).

As for “GATGATTGTTCTCCCAGCTGATGAATTTCTCAGTTCGAGTAAACAAATTTTCCTAATCTTTCTGTTCAAGCGCCATCTAC”, the binding signal is 0.777 RPM ratio (pull-down/input).

As to “GATGATTGTTCTCCCAGCTGATGAATTCCAAGGATCGAGTAAACAAATTTTCCTAATCTTTCTGTTCAAGCGCCATCTAC”, the binding signal was 0.795 RPM ratio (pull-down/input).

Take “GATGATTGTTCTCCCAGCTGATGAATTACCGGACTCGAGTAAACAAATTTTCCTAATCTTTCTGTTCAAGCGCCATCTAC”: the binding signal is 0.873 RPM ratio (pull-down/input).

“GATGATTGTTCTCCCAGCTGATGAATTCAGAGGTTCGAGTAAACAAATTTTCCTAATCTTTCTGTTCAAGCGCCATCTAC”: the binding signal was 0.772 RPM ratio (pull-down/input).

With “GATGATTGTTCTCCCAGCTGATGAATTACAATGATCGAGTAAACAAATTTTCCTAATCTTTCTGTTCAAGCGCCATCTAC”, the binding signal is 1.33 RPM ratio (pull-down/input).

For “GATGATTGTTCTCCCAGCTGATGAATTCTTAATATCGAGTAAACAAATTTTCCTAATCTTTCTGTTCAAGCGCCATCTAC”, the binding signal is 1.08 RPM ratio (pull-down/input).

As to “GATGATTGTTCTCCCAGCTGATGAATTAGAGGTTTCGAGTAAACAAATTTTCCTAATCTTTCTGTTCAAGCGCCATCTAC”, the binding signal is 0.899 RPM ratio (pull-down/input).

As for “GATGATTGTTCTCCCAGCTGATGAATTCAAATACTCGAGTAAACAAATTTTCCTAATCTTTCTGTTCAAGCGCCATCTAC”, the binding signal is 1.01 RPM ratio (pull-down/input).

Take “GATGATTGTTCTCCCAGCTGATGAATTGCTGCCATCGAGTAAACAAATTTTCCTAATCTTTCTGTTCAAGCGCCATCTAC”: the binding signal was 1.08 RPM ratio (pull-down/input).

As for “GATGATTGTTCTCCCAGCTGATGAATTGACTGACTCGAGTAAACAAATTTTCCTAATCTTTCTGTTCAAGCGCCATCTAC”, the binding signal was 0.978 RPM ratio (pull-down/input).

For “GATGATTGTTCTCCCAGCTGATGAATTAGAAAGATCGAGTAAACAAATTTTCCTAATCTTTCTGTTCAAGCGCCATCTAC”, the binding signal is 0.82 RPM ratio (pull-down/input).

As for “GATGATTGTTCTCCCAGCTGATGAATTTAACAAGTCGAGTAAACAAATTTTCCTAATCTTTCTGTTCAAGCGCCATCTAC”, the binding signal was 0.884 RPM ratio (pull-down/input).

“GATGATTGTTCTCCCAGCTGATGAATTTGTCAGATCGAGTAAACAAATTTTCCTAATCTTTCTGTTCAAGCGCCATCTAC”: the binding signal was 0.993 RPM ratio (pull-down/input).

As to “GATGATTGTTCTCCCAGCTGATGAATTCGTAAGGTCGAGTAAACAAATTTTCCTAATCTTTCTGTTCAAGCGCCATCTAC”, the binding signal is 0.821 RPM ratio (pull-down/input).

On to “GATGATTGTTCTCCCAGCTGATGAATTTGAGCTTTCGAGTAAACAAATTTTCCTAATCTTTCTGTTCAAGCGCCATCTAC”, for which the binding signal was 0.854 RPM ratio (pull-down/input).

For “GATGATTGTTCTCCCAGCTGATGAATTACTGCCTTCGAGTAAACAAATTTTCCTAATCTTTCTGTTCAAGCGCCATCTAC”, the binding signal was 0.946 RPM ratio (pull-down/input).

Regarding “GATGATTGTTCTCCCAGCTGATGAATTCGCGCAGTCGAGTAAACAAATTTTCCTAATCTTTCTGTTCAAGCGCCATCTAC”, the binding signal was 0.818 RPM ratio (pull-down/input).
